We go through 104 compounds from ChEMBL document CHEMBL4888484, “Replenishing the malaria drug discovery pipeline: Screening and hit evaluation of the MMV Hit Generation Library 1 (HGL1) against asexual blood stage Plasmodium falciparum ,using a nano luciferase reporter read-out” (2022).

About 410 (8.5%) of roughly 4,800 compounds showed an effect of 50% or more. Some of the results follow.

As a reminder, the % Inhibition is the relative decrease from the control value, in per cent.

The subject of the assay is Plasmodium falciparum. As to the kind of experiment: Confirmatory screen in NF54 pLDH assay, in single point, at 2uM, 72h. It is filed as functional, Erythrocyte. To be noted: timepoint 72 hour.
In the case of `O=C1CC(c2cccc(Br)c2)N(S(=O)Oc2ccccc2)c2ccccc21` (centres undefined), the “% Inhibition” value came to 1%.

Take `Cc1csc([C@@H]2CN(c3cnccn3)CCO2)n1`: the “% Inhibition” value is -1%.

Take `COCc1ccc(C(=O)N(c2ccc(F)cn2)C2CCOCC2)cc1`: the “% Inhibition” value is recorded as -12%.

With `Cc1noc(CCNC(=O)N2CCCCC[C@H]2c2ccc(C)o2)n1`, the “% Inhibition” value is on record as -1%.

On to `Cn1cc(C(=O)c2nc(-c3ccccc3Cl)no2)cn1`, for which the “% Inhibition” value is given as -5%.

Regarding `Cc1ccc(C(=O)N(C(=O)c2ccc(C)cc2C)c2ccc(Br)cn2)c(C)c1`, the “% Inhibition” value is given as -16%.

For the compound `CCOc1cc(N2CCOCC2)c(OCC)cc1NC(=O)c1ccc(C)c(NC(=O)c2ccco2)c1`, the “% Inhibition” value is 6%.

On to `Clc1ccc(OCCNCCOc2ccc(Cl)cc2Cl)c(Cl)c1`, for which the “% Inhibition” value was determined as 11%.

With `Cc1noc(-c2ccc(C(C)(C)C)cc2)c1C(=O)NCCOc1ccccc1`, the “% Inhibition” value is reported as 8%.

`Cc1noc(C)c1S(=O)(=O)Nc1cc(-c2nnc3n2CCCCC3)c(F)cc1F`: the “% Inhibition” value was found to be 4%.

On to `COc1nc(C)nc2c(CN(C)C)c(C)[nH]c12`, for which the “% Inhibition” value came to 11%.

As to `Oc1ccc(-c2nc(-c3c[nH]c4ccccc34)cs2)cc1`, the “% Inhibition” value is 15%.

`CN1C2(c3ccccc3)C3C(=O)N(c4ccccc4)C(=O)C3C1(c1ccccc1)C1C(=O)N(c3ccccc3)C(=O)C12` (centres undefined): the “% Inhibition” value came out at 8%.

On to `O=C1c2ccccc2N[C@]2(C(=O)Nc3ccccc32)N1c1ccc2c(c1)OCO2`, for which the “% Inhibition” value is -25%.

For the compound `CC1CC(Nc2ncnc3cc(Br)ccc23)CCN1C` (centres undefined), the “% Inhibition” value was 95%.

For `O=C(O)c1nccc(C(F)(F)F)c1Cl`, the “% Inhibition” value is listed as -7%.

As to `CCOc1cc(-c2nn3c([C@H]4CCCN(C)C4)nnc3s2)cc(OCC)c1OCC`, the “% Inhibition” value is on record as 2%.

For the compound `COc1ccc2c(O)cc(-c3ccccc3)nc2c1`, the “% Inhibition” value was 1%.

Consider `CCOC(=O)N1CCN(C(=O)C2c3ccccc3C(=O)N(C3CCCCC3)C2c2ccc(OC)cc2)CC1` (centres undefined), for which the “% Inhibition” value stood at 9%.

In the case of `CCn1nc(-n2cnnc2)c(NS(=O)(=O)c2cccc(Cl)c2)c1C`, the “% Inhibition” value amounted to 3%.

For the compound `CC1CCCCC1NC(=O)N1CCCC2(CC=CCC2)C1` (centres undefined), the “% Inhibition” value is given as 14%.

As to `Cc1ccccc1Cc1nnc2n1CCOC2`, the “% Inhibition” value came out at 5%.

For the compound `CCCCC12CN(S(=O)(=O)c3ccccc3)CC(C)(CN(S(=O)(=O)c3ccccc3)C1)C2=O`, the “% Inhibition” value was -6%.

Consider `CC(C)C[C@H]1C(=O)NCCN1Cc1ncc(-c2ccccc2)o1`, for which the “% Inhibition” value is reported as 2%.

Turning to `C[C@H](C#N)CNc1ncc(Br)cn1`, the “% Inhibition” value was found to be 11%.

On to `CO[C@H]1CCOC2(CCN(C(=O)c3ccccc3F)CC2)C1`, for which the “% Inhibition” value is 9%.

For `Cc1nn(CC2CC2)c(=O)n1-c1ccc(F)cc1`, the “% Inhibition” value is -11%.

Take `Brc1cc(Br)c2nc(-c3cnccn3)ccc2c1`: the “% Inhibition” value was 14%.

In the case of `COc1ccc(-c2cc(C[C@H]3CNCC[C@H]3CC(=O)Nc3ccccc3)no2)cc1`, the “% Inhibition” value was determined as 13%.

In the case of `Cc1noc(OCCc2ccccc2)n1`, the “% Inhibition” value was 11%.

Regarding `CCOC(=O)c1cc(F)cc(S(=O)(=O)Nc2ccnc3ncnn23)c1`, the “% Inhibition” value is -3%.

Consider `COc1ccc(CCNC(=O)C2CCN(c3nccn4nc5c(c34)CCCC5)CC2)cc1OC`, for which the “% Inhibition” value amounted to 23%.

With `COc1ccc(S(=O)(=O)N(CC(=O)NCc2cccnc2)C2CCCCC2)cc1OC`, the “% Inhibition” value came out at 12%.

As for `C#CCOCC(O)CN(Cc1c(-c2ccccc2)noc1N1CCC(C)CC1)CC1CCCO1` (centres undefined), the “% Inhibition” value is -15%.

For the compound `Cc1c(Cl)cccc1NC(=O)CN1N=C(C(=O)Nc2ccccc2)CCC1=O`, the “% Inhibition” value is recorded as -4%.

`O=C(NCc1ccc(F)cc1F)c1ccc(Cn2ccn3nc4c(c3c2=O)CCCC4)cc1`: the “% Inhibition” value is -3%.

For the compound `Cc1cc(-c2nnc(Cc3cccc(Cl)c3)o2)n(C)n1`, the “% Inhibition” value is on record as -14%.

On to `CN(C)c1ccc(NC(=O)C[C@@H]2C=CCC2)cc1`, for which the “% Inhibition” value worked out at 10%.

On to `CC(C)c1cc(CN(Cc2cc(C(C)C)c(O)c(C(C)C)c2)C2CCCCC2)cc(C(C)C)c1O`, for which the “% Inhibition” value amounted to 98%.

`CC(C)(C)NC(=O)CNC(=O)c1cccc(F)c1`: the “% Inhibition” value is listed as -8%.

Turning to `O=C(NCc1nccs1)[C@@H]1CCCN1C(=O)c1ccco1`, the “% Inhibition” value is reported as -6%.

Consider `O=C(O)C1Cc2c([nH]c3ccccc23)C(c2ccc3c4c(cccc24)CC3)N1` (centres undefined), for which the “% Inhibition” value is 6%.

Consider `CCc1ccc(C(=O)NCCCC2CCCC2O)cc1S(=O)(=O)N1CCOCC1` (centres undefined), for which the “% Inhibition” value is on record as 42%.

Take `O=C(NCCN1CCCC1)c1cc2n(n1)CCN(Cc1cccc(F)c1)C2=O`: the “% Inhibition” value is recorded as -27%.

For `COc1ccc(-c2cnn3ccc(-c4ccc(-n5ccc(=O)cc5)cc4)nc23)cc1OC`, the “% Inhibition” value is reported as 10%.

Turning to `Cc1cc(C)n(-c2c(C)[nH]c3ccccc23)n1`, the “% Inhibition” value was -2%.

For `C[C@H](C(=O)Nc1ccc(F)cc1Cn1ccsc1=O)C1CC1`, the “% Inhibition” value was -14%.

Regarding `Cn1cc(Br)cc1C(=O)N1CC(O)(C2CC2)C1`, the “% Inhibition” value came out at 5%.

As to `COc1cccc(-c2noc3nc(C)cc(C(=O)N[C@@H](C)c4ccn(C)n4)c23)c1`, the “% Inhibition” value is -12%.

As to `Cc1ccc(CCNC(=O)c2ccc(-c3nc(CS(=O)(=O)c4ccc(C)cc4)c(C)o3)cc2)cc1`, the “% Inhibition” value is -23%.

Regarding `CCNc1nc(C)cc(Nc2ccc(NC(=O)c3cc(C)ccc3C)cc2)n1`, the “% Inhibition” value came out at 99%.

In the case of `Cc1cc(C(=O)Nc2c(F)cccc2OCc2ccccc2)on1`, the “% Inhibition” value was determined as 2%.

Regarding `Fc1ccccc1-c1c2c(nc3ccc(Cl)cc13)CCCCCC2`, the “% Inhibition” value is listed as -9%.

In the case of `CC[C@@H](C(=O)NC)n1ccc2cc(S(=O)(=O)N3CCCCC3)ccc21`, the “% Inhibition” value came out at 8%.

As to `Cc1nn(C)c(C)c1S(=O)(=O)N1CCCN(c2ccc(F)c(F)c2)CC1`, the “% Inhibition” value is listed as 7%.

Take `Cc1nnc(CNC(=O)Nc2cccc3c4c(oc23)CCCC4)o1`: the “% Inhibition” value was 72%.

For `Cc1cc(F)ccc1-n1nnc(C(=O)O)c1-c1cccnc1`, the “% Inhibition” value was -4%.

Turning to `COc1cccc(N2CCN(c3cc4n[nH]c(=O)n4cn3)CC2)c1`, the “% Inhibition” value is on record as 8%.

Take `CN(C)c1nccc(NC[C@H](N)c2ccccc2)n1`: the “% Inhibition” value was -12%.

`O=C(Nc1ccc(N2CCn3c(nc4cc(Cl)ccc43)C2)cc1)c1ccc(F)cc1`: the “% Inhibition” value was -9%.

With `O=C(c1ccc(F)cc1)c1c[nH]c(C(=O)NCc2ccc(F)cc2)c1`, the “% Inhibition” value was -17%.

On to `Cc1ccc(S(=O)(=O)Nc2c(S(=O)(=O)c3ccccc3)c3nc4ccccc4nc3n2CCc2ccccc2)cc1`, for which the “% Inhibition” value was 100%.

Consider `Cn1cc(-c2nn(S(=O)(=O)c3ccccc3)c(-c3cnn(C)c3)c2Cl)cn1`, for which the “% Inhibition” value came to 9%.

`Cc1ccc(C)c(S(=O)(=O)NCCNc2ccc(Nc3ccncc3)nn2)c1`: the “% Inhibition” value was 29%.

Consider `COc1ccc(-c2noc(CCn3c(=O)[nH]c4cc5c(cc4c3=O)OCO5)n2)c(OC)c1`, for which the “% Inhibition” value is listed as 6%.

For `CCNC(=O)c1nc(C(=O)NCc2ccco2)cs1`, the “% Inhibition” value is -12%.

`Cc1ccoc1C(=O)Nc1ccc(Cc2nnc3ccccn23)cc1`: the “% Inhibition” value is reported as -16%.

As for `COc1ccc(-c2nn3c(C4CCN(C)CC4)nnc3s2)cc1`, the “% Inhibition” value was -7%.

For `CC1CC(C)CC2(C1)NC(=O)N(CCC1OCCO1)C2=O` (centres undefined), the “% Inhibition” value is on record as -1%.

For `COC1(CNC(=O)NC2CC=CC2)CCC1`, the “% Inhibition” value is 8%.

As for `CN(C)c1nc(CN2CCC[C@H](c3n[nH]c(-c4ccccc4)n3)C2)ns1`, the “% Inhibition” value is given as 2%.

As for `COc1cc(NC(=O)N2CC(c3noc(-c4ccccc4)n3)C2)cc(OC)c1OC`, the “% Inhibition” value was found to be 3%.

For `CC(C)(C)CC(=O)Nc1ccccc1C(N)=O`, the “% Inhibition” value came to 13%.

On to `CC1CN(C(=O)c2n[nH]c3ccccc23)CC(C)O1` (centres undefined), for which the “% Inhibition” value was determined as 9%.

On to `Cn1nnnc1NC/C=C/c1ccccc1`, for which the “% Inhibition” value is 0%.

`O=C(C[C@H]1CCN(C(=O)c2cc(F)ccc2F)C1)NC1CC1`: the “% Inhibition” value is listed as -12%.

Regarding `CCc1ccc(C(=O)Nc2cnc(-n3ccnc3)nc2)cc1`, the “% Inhibition” value came to 29%.

As for `COc1ccc(NC(=O)C2(N(Cc3nc(-c4ccccc4)cs3)C(=O)Cn3nnc4ccccc43)CCCCC2)cc1`, the “% Inhibition” value is on record as -3%.

On to `CC(C)(C)OCCON=C(N)c1cccs1`, for which the “% Inhibition” value is given as 13%.

For `Cc1nn(Cc2ccc(Cl)cc2)c(=O)n1-c1ccc(OCc2ccccc2)cc1`, the “% Inhibition” value is recorded as -5%.

With `CCC[N+]1(CC#C[C@@](O)(c2ccccc2)C(C)(CC)CC)CCCCC1`, the “% Inhibition” value is 45%.

As for `COC(=O)c1cn(CCc2c[nH]c3ccccc23)cc(C(=O)OC)c1=O`, the “% Inhibition” value is recorded as 12%.

As to `COC1CCC(CC(=O)N[C@H]2CC(=O)N(c3ccccc3)C2)CC1` (some centres undefined), the “% Inhibition” value amounted to 10%.

`CNCCc1c(-c2ccccc2)[nH]n(-c2ccccc2)c1=O`: the “% Inhibition” value was 69%.

As for `CCOc1ccc(C/C(=C/N)c2nc(-c3ccc(Cl)cc3)cs2)cc1`, the “% Inhibition” value is 15%.

For `CC(=O)N(c1nc(COc2nc(C(C)(C)C)no2)cs1)c1ccccc1F`, the “% Inhibition” value is on record as 17%.

As to `CCC(C)(C(=O)NC1CCCC1)N(C(=O)c1cccs1)C1CCCO1` (centres undefined), the “% Inhibition” value is recorded as -10%.

As to `Cc1cc(C(=O)Nc2nc(-c3ccc4c(c3)CCC4)n[nH]2)no1`, the “% Inhibition” value was 7%.

Consider `COc1ccc2c(c1)CN(c1nnc(C3CC3)o1)CC2`, for which the “% Inhibition” value came out at 9%.

As for `Cc1ccc(F)cc1NC(=O)c1nnn(CC(=O)NCc2ccccc2Cl)c1C`, the “% Inhibition” value is listed as -14%.

As for `Cc1noc(Cn2c(=O)c3ccccc3n(CC(=O)Nc3ccc(F)cc3F)c2=O)n1`, the “% Inhibition” value is on record as 1%.

On to `CN(CCN)c1ccc(Br)cc1C#N`, for which the “% Inhibition” value turned out to be 9%.

As to `O=C(CCC(=O)NCc1ccccc1)NCCCN1CCOCC1`, the “% Inhibition” value was determined as 6%.

Turning to `O=C(NC(c1ccccc1)C1CCOC1)c1cn(C2CCOC2)nn1` (centres undefined), the “% Inhibition” value is on record as -1%.

Take `Cc1ccc(NC(=O)[C@@H]2CC(=O)N=C(N3CCOCC3)N2)cc1Cl`: the “% Inhibition” value is given as 10%.

With `Cn1cc(CCn2nccc2-c2ccc(F)c(Cl)c2)cn1`, the “% Inhibition” value is given as -2%.

`CC(C)(CNC(=O)[C@](C)(N)c1ccccc1)C(=O)O`: the “% Inhibition” value is listed as -1%.

As for `O=C(NC1CCCC1)c1cc2c(Cl)ccc3c2n1CCO3`, the “% Inhibition” value is recorded as 13%.

`COCc1nncn1C1CN(C(=O)Cc2ccccc2C)C1`: the “% Inhibition” value is reported as -8%.

On to `CCOC[C@@H](O)CN(Cc1c(C)nn(-c2ccccc2)c1Oc1cccc(C)c1)C1CC1`, for which the “% Inhibition” value is on record as 8%.

Regarding `O=C(Nc1sc2c(c1C(=O)O)CCC2)c1ccsc1`, the “% Inhibition” value is reported as -3%.

Take `COc1nc(N)nc(C(Cl)(Cl)Cl)n1`: the “% Inhibition” value stood at 0%.

On to `CC(C#N)CNCCC(C)c1ccccc1` (centres undefined), for which the “% Inhibition” value is 8%.

In the case of `O=C(CN1C(=O)COc2cc(Br)ccc21)Nc1cccc2ccccc12`, the “% Inhibition” value stood at 9%.
